We go through 40 sequences from the supplement of paper PMC10441789.

Some of the results follow. Antibody binding of pooled human sera (four to six donors per pool; dilution not stated) to peptides of the Trypanosoma cruzi antigen TSSA on microarrays. Quantile-normalised fluorescence in arbitrary units, mean of duplicate arrays; higher = more binding. No active / inactive call. The uninfected pools are read here as the healthy donors of the same country. The strongest signals lie near the top of the scale (about 60,000).

In this assay the test system is pooled sera of chronic Chagas disease patients, Argentina. Kind of assay: antibody binding signal (normalised fluorescence) (arbitrary fluorescence units); higher = stronger serum antibody binding to peptide. As to the method:
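Microarray of 15-residue peptides over residues 30-55 of Trypanosoma cruzi TSSAII, each with 1 to 10 substitutions at naturally variable positions, probed with one serum pool per country.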
Sequence GTENKPAAGGTPSQS had an antibody binding signal of 45300. Next, KDKKAATGETPSPPG: 453. The figure for GTEKKPATGGTPSPS is 1650; for KENKTATGEAPSPSG it is 14000; for NKAATGGTPSQSGAS it is 557.

TISTPPSGTENKAAT had an antibody binding signal of 46900. KENKPATGGTPSQPG gave an antibody binding signal of 373.

Consider GTDNKAATGETPSQP, for which the antibody binding signal amounted to 4740. Next, TEKKPAAGGAPSPPG: 1090; STPPSGTDKKAAAGG: 38200. The sequence TPPSGTDKKTAAGGA yielded an antibody binding signal of 24900. Next, GKDKKPAAGETPSPP: 592. The figure for DNKPAAGGTPSPSGA is 206; for ENKTAAGGAPSPSGA it is 362; for SGKDNKPATGGAPSQ it is 1940. Next, SGKENKAATGGAPSP: 3510; GKEKKTATGEAPSQP: 13400; TENKAATGGAPSQSG: 29200. For the sequence EKKTATGGTPSPSGA, the antibody binding signal turned out to be 634. For the sequence SGTEKKTAAGGTPSQ, the antibody binding signal was determined as 1420. The figure for PPSGKENKPAAGETP is 10300; for GKDKKTAAGGTPSQS it is 295; for ISTPPSGKEKKAAAG it is 15800. The sequence TSSTPPSGTEKKTAA registered an antibody binding signal of 33100. Sequence PPSGTENKAAAGETP had an antibody binding signal of 42400. Next, PSGTDKKTATGGAPS: 4160; TISTPPSGTDKKTAT: 30700. Next, PSGKDNKPAAGGTPS: 3250; GTDNKPAAGEAPSQS: 3910.

With GTDKKAATGEAPSPS, the antibody binding signal was 21700.

ENKTATGEAPSQPGA came in with an antibody binding signal of 18600. The figure for STPPSGTDKKAAAGE is 35300. TSSTPPSGTEKKAAT registered an antibody binding signal of 37400. For GTEKKPAAGEAPSQS, the antibody binding signal was found to be 3210. Consider PPSGKEKKAAAGEAP, for which the antibody binding signal turned out to be 1520. The figure for GKENKAATGGAPSPP is 9790. Next, NKAAAGGAPSQPGAS: 341; DNKTAAGGTPSPPGA: 1250. Next, KDKKPATGEAPSQPG: 42900; KDNKPATGETPSPSG: 40300.
